In PubChem BioAssay AID485344 (National Center for Advancing Translational Sciences (NCATS), 2010):
About 6,900 (2%) of roughly 340,000 compounds were called active. Cut-off read from the data, not from the text of the source: active = inhibition above about 30%; inactive = below that, where a call was filed. Only a part is listed here, and it is no random draw. Entries without a call were filed so in the source.

Molecular target: D(2) dopamine receptor (Homo sapiens) (UniProt P14416)
Assay: HTS Assay for Allosteric Antagonists of the Human D2 Dopamine Receptor: Primary Screen for Antagonists; note: 0% is about no effect
Conditions: HEK293 TREx D2 cells, calcium flux, dopamine EC80; at 10 µM; stronger effect = higher value
Outline: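 HEK293 T-REx D2 cells, tet-induced, calcium dye no-wash. Cpd pintool add, 180 s kinetic, then EC80 DA, 180 s kinetic. Ca flux read.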

Chain of UniProt P14416 (P14416 whole entry, looked up): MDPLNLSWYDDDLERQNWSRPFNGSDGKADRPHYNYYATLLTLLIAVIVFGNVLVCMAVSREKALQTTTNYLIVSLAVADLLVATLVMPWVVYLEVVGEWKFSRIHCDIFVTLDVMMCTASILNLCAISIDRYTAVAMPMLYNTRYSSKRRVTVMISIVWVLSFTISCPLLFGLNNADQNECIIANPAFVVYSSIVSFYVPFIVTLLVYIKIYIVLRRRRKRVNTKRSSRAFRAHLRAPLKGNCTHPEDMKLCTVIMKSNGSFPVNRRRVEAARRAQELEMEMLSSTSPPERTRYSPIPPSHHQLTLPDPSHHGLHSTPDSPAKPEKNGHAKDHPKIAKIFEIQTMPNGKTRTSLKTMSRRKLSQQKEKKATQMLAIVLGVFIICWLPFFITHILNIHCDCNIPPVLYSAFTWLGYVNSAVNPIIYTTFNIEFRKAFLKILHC

Compared with `CCCN1C(=O)C2(c3ccccc31)c1c(oc3cc(C)c(C)cc3c1=O)C(=O)N2CCCOC` (stereo not drawn), `CCCCOc1ccc(CN2C(=O)C(=O)c3cc(C)ccc32)cc1OC` is higher in inhibition: 10.1% for the first, 15.3% for the second.

First: CCC(=O)N1c2ccccc2CC1C(=O)NCCc1ccc(OC)cc1OC (stereo not drawn)
Second: CCC(C(=O)NCCc1cc(OC)ccc1OC)n1nc(C)c2sc3ccccc3c2c1=O (stereo not drawn)
The inhibition of the first is higher: 8.61% for the first, 5.22% for the second.

First: Cc1cc(C)cc(OCCSc2nc(-c3ccc(C(C)(C)C)cc3)nc3cc(=O)[nH]n23)c1
Second: Cc1cc(-c2nc3ncccc3o2)ccc1NC(=O)COc1cc(C)c(Cl)c(C)c1
The inhibition of the first is higher: 7.31% for the first, -13.8% for the second.

First: COC(=O)c1c(NC(=O)COc2ccc(OC)cc2)sc2c1CCC(C)C2 (stereo not drawn)
Second: CC1CCc2c(sc(NC(=O)c3cc(-c4ccc(Br)cc4)on3)c2C(N)=O)C1 (stereo not drawn)
The inhibition of the first is higher: 7.57% for the first, 5.56% for the second.

First: COc1cc(NC(=O)CSc2ccc(-c3sc(-c4ccccc4)nc3C)nn2)cc(OC)c1
Second: Cc1ccc(NC(=O)CSc2nc3ccc(NC(=O)CCc4ccccc4)cc3s2)c(C)c1
The inhibition of the first is higher: 6.5% for the first, -13.3% for the second.

Compared with `CCN(CC)C(=O)c1sc2c(c1C)c(=O)n(CCc1ccccc1)c(=O)n2Cc1cccc(Cl)c1`, `Cc1c(CNCCCc2ccccc2)c(C(=O)O)c(C)n1Cc1cccc(Cl)c1` is lower in inhibition: 6.43% for the first, -4.75% for the second.

Going from `COc1ccccc1CNc1ccc(-c2nc(-c3cccc(C)c3)no2)cc1[N+](=O)[O-]` to `CN(Cc1ccccc1)c1ccc(-c2nc(-c3cccnc3)no2)cc1[N+](=O)[O-]`, the inhibition rises from 16.4% to 26.2%.

Compared with `CN(C)c1ccc(CNC(=O)c2ccc3c(c2)N(C)C(=O)C2CCCCN32)cc1` (stereo not drawn), `CN(C)c1ccc(CNC(=O)c2cccn2-c2nnc(N3CCCCC3)s2)cc1` is higher in inhibition: 2.33% for the first, 3.75% for the second.

Compared with `CCOc1ccccc1N1CC(c2nc3ccccc3n2CCCCOc2cc(C)ccc2C)CC1=O` (stereo not drawn), `CCOC(=O)c1cnc2c(C)cc(C)cc2c1Nc1ccc(OCc2ccccc2)cc1` is higher in inhibition: 1.26% for the first, 1.41% for the second.

Compared with `COc1ccc(-n2nc(C(=O)NCc3ccc(F)cc3)c3c4ccccc4n(C)c3c2=O)cc1`, `CCOC(=O)c1cccc(NC(=O)c2nn(-c3ccc(OC)cc3)c(=O)c3c2c2ccccc2n3C)c1` is lower in inhibition: 14.8% for the first, -1.97% for the second.

First: CC1=C(c2ccc(C)c(C)c2)S(=O)(=O)N=C1N1CCC(C(=O)N2CCCCC2)CC1
Second: CCC1=C(c2ccc(C)cc2)S(=O)(=O)N=C1N1CCC(C(=O)N2CCCCC2)CC1
The inhibition of the first is lower: 6.64% for the first, 9.02% for the second.

Compared with `CCOc1ccc(CNC(=O)CCc2cn(CC)c3ccccc23)cc1`, `CCOC(=O)c1cnc2nc(NCc3ccc(OCC)cc3)[nH]n2c1=O` is lower in inhibition: 13.5% for the first, 8.71% for the second.

First: CCc1ccc(NC(=O)C2CCN(S(=O)(=O)c3c(C)noc3/C=C\c3ccc(OC)cc3)CC2)cc1
Second: COc1ccc(NC(=O)C2CCN(S(=O)(=O)c3c(C)noc3/C=C/c3ccc(C)cc3)CC2)cc1Cl
The inhibition of the first is lower: 11.8% for the first, 19.4% for the second.

Compared with `O=C(NCCc1ccccc1)c1ccc(CSc2nc3ccncc3n2Cc2cccc(F)c2)cc1`, `COc1ccccc1CNC(=O)c1ccc2c(c1)N(Cc1ccc(C)cc1)CCS2` is higher in inhibition: -5.78% for the first, 2.11% for the second.

Going from `COc1cc(C(=O)Nc2ccc(OCc3cc(=O)n4cccc(C)c4n3)cc2)cc(OC)c1OC` to `CCC(Oc1ccccc1)C(=O)Nc1ccc(OCc2cc(=O)n3ccc(C)cc3n2)cc1` (stereo not drawn), the inhibition falls from -4.53% to -4.7%.

Going from `CCCCn1cc(S(=O)(=O)c2ccccc2)c(=O)c2cc(F)c(N3CCC(C)CC3)cc21` to `COc1ccc(S(=O)(=O)c2cn(C)c3cc(N4CCOCC4)c(F)cc3c2=O)cc1`, the inhibition falls from 2.1% to -0.542%.

First: COc1ccc(NC(=O)C2=C(C)Nc3ncnn3C2c2ccccn2)cc1 (stereo not drawn)
Second: CCOC(=O)C1=C(C(F)(F)F)Nc2ncnn2C1c1cccc(OC)c1OC (stereo not drawn)
The inhibition of the first is lower: -6.63% for the first, 6.92% for the second.

First: COc1ccc(NC(=O)CN(C)S(=O)(=O)c2ccc3nc(C)sc3c2)cc1
Second: CCc1ccc(OCC(=O)Nc2ccc3oc(-c4ccc(OC)cc4)nc3c2)cc1
The inhibition of the first is lower: -22.8% for the first, 19.6% for the second.

First: CC(C)CCNC(=O)c1cc(Sc2ccc(F)cc2F)nc2ccccc12
Second: CC(C)Oc1ccc(CNC(=O)c2ccccc2NC(=O)c2nsc3ccccc23)cc1
The inhibition of the first is lower: 0.461% for the first, 8.34% for the second.

Compared with `COc1ccc(N2C(=O)CS(=O)(=O)C23C(=O)N(Cc2c(F)cccc2Cl)c2ccccc23)cc1` (stereo not drawn), `COc1ccc(-c2nc3c4ccccc4n(CC(=O)N4CCN(c5ccccc5F)CC4)c(=O)n3n2)cc1` is lower in inhibition: 20.2% for the first, -2.08% for the second.

First: O=C(CCCCn1c(=O)c2ccccc2n(Cc2ccccc2F)c1=O)NCc1ccccc1Cl
Second: COc1ccccc1NC(=O)Cn1c(=O)n(Cc2nc(-c3ccccc3)no2)c(=O)c2ccccc21
The inhibition of the first is higher: 20.8% for the first, 0.403% for the second.

Going from `CCN(CC)C(=O)C1=CC(c2ccc3c(c2)OCO3)=NS(=O)(=O)N1C` to `CC(C)(C)NC(=O)CCSc1nc(-c2ccc3c(c2)OCO3)cc(C(F)(F)F)n1`, the inhibition falls from 25.5% to 12.1%.

First: O=S(=O)(NCCc1nnc2ccc(SCc3c(F)cccc3Cl)nn12)c1ccccc1
Second: CCN(Cc1ccccc1)S(=O)(=O)c1ccc2[nH]c3c(c2c1)CCCCC3
The inhibition of the first is higher: 0.192% for the first, -5.75% for the second.

First: COC(=O)c1ccc(CN(Cc2ccc(OC)c(OC)c2)S(=O)(=O)c2cc(C(=O)Nc3cccc(C)c3)ccc2F)cc1
Second: O=C(NCc1ccc(F)cc1)C(=O)NCC(c1cccs1)S(=O)(=O)c1cccs1 (stereo not drawn)
The inhibition of the first is higher: 28.2% for the first, -22.2% for the second.

First: CNS(=O)(=O)c1cn(CC(=O)N2CCN(c3cccc(Cl)c3)CC2)cc1S(=O)(=O)NC
Second: COc1ccc(-c2nn(C)c3sc(C(=O)N4CCN(c5cccc(Cl)c5)CC4)cc23)cc1OC
The inhibition of the first is lower: -8.29% for the first, 0.165% for the second.

Compared with `CCn1cc(C(=O)N2CCN(c3ccccc3OC)CC2)c(=O)c2cc(S(=O)(=O)N3CCC(C)CC3)ccc21`, `CCc1ccccc1NC(=O)CN1C(=O)COc2ccc(S(=O)(=O)N3CCCCCC3)cc21` is lower in inhibition: 2.1% for the first, 0.406% for the second.

Compared with `Cc1ccc(-n2ncc3c(N4CCCCCC4)ncnc32)cc1C`, `Cc1ccc(-n2cnc3cc(C(=O)NC4CCCCCC4)ccc32)cc1Cl` is lower in inhibition: 5.39% for the first, -5.59% for the second.

First: CCN(CC)S(=O)(=O)c1ccc2c(c1)N(CC(=O)NCC(C)c1ccccc1)C(=O)CO2 (stereo not drawn)
Second: CCOc1ccc(S(=O)(=O)NCC(c2cccs2)S(=O)(=O)c2ccc(C)cc2)cc1 (stereo not drawn)
The inhibition of the first is lower: -10.6% for the first, -0.174% for the second.

Compared with `CCCCOc1ccc(C(=O)NCCc2csc(-c3ccc(OC)cc3)n2)cc1`, `CCS(=O)(=O)NCCc1csc2nc(-c3ccc(C)cc3)nn12` is higher in inhibition: -0.128% for the first, 12.4% for the second.

Compared with `Cc1ccc(C)c(N(C)S(=O)(=O)c2ccc3[nH]cc(C(=O)NC4CCCC4)c(=O)c3c2)c1`, `Cc1ccc(NS(=O)(=O)c2ccc3[nH]c4c(c3c2)CCCCC4)cc1` is lower in inhibition: 13% for the first, 8.31% for the second.

First: Cc1ccc(OCc2cc(=O)n3cc(C)sc3n2)c(C)c1
Second: Cc1ccc(C)c(NC(=O)Nc2csc3c2CCCC3)c1
The inhibition of the first is higher: 4.91% for the first, -23.9% for the second.

First: CC(=O)N1CCc2cc(S(=O)(=O)N3CCN(c4ccc(C)cc4)C(C)C3)ccc21 (stereo not drawn)
Second: CCOc1ccc2nc(N3CCCC(C(=O)NCc4ccc(C)cc4)C3)sc2c1 (stereo not drawn)
The inhibition of the first is lower: 6.33% for the first, 6.72% for the second.

Compared with `CCc1ccc(OCC(=O)Nc2ccc(Cl)c(-c3nc4ncccc4o3)c2)cc1`, `O=C(COc1ccccc1)Nc1c(Cl)ccc2nsnc12` is higher in inhibition: -8.82% for the first, 7.94% for the second.

Going from `COC(=O)CC1Oc2ccc(Cl)cc2-n2cc(-c3ccc(F)cc3)nc21` (stereo not drawn) to `Cc1cccc(-n2c(-c3ccco3)nc3c(cnn3-c3ccc(F)cc3)c2=O)c1`, the inhibition falls from 8.83% to -14.2%.

First: COC(=O)c1c(C)sc(-c2c(-c3ccc4c(c3)OCCO4)[nH]c3c2c(=O)[nH]c(=O)n3C)c1O
Second: CC(C)NC(=O)C1CCN(C(=O)N2CC(C)Oc3ccccc32)CC1 (stereo not drawn)
The inhibition of the first is lower: 5.5% for the first, 9.29% for the second.

For `O=C(COCc1cc(-c2cccs2)on1)Nc1cccc(O)c1`, the inhibition was -14.7%.

In the case of `COc1ccc(S(=O)(=O)N(C)C)cc1NC(=O)COC(=O)c1nc2nccc(C)n2n1`, the inhibition is reported as active: 40.4%.
With `CC(C)c1ccc(NC(=O)CSc2n[nH]c(=O)n2-c2cccnc2)cc1` the inhibition was active: 30.6%.
With `OC(COCc1cccs1)CN1CCN(c2cccc(Cl)c2)CC1` (stereo not drawn) the inhibition was active: 43.4%.
In the case of `COc1cc(OC)cc(C(=O)NCC2CCCN(Cc3ccc(SC)cc3)C2)c1` (stereo not drawn), the inhibition is reported as active: 51.3%.
For `CC(=O)Nc1cccc(C(=O)OCC(=O)c2ccccc2Cl)c1`, the inhibition was active: 41.1%.
With `COc1ccc(O)c(CNn2c(-c3ccc(Br)cc3)nc3ccccc3c2=O)c1` the inhibition was active: 49.9%.
For `O=C(c1ccc2nc[nH]c2c1)N1CCc2ccccc2C1`, the inhibition was active: 35.1%.
For `COc1ccc(/C=N/NS(=O)(=O)c2ccccc2)cc1OS(=O)(=O)c1ccc(C)cc1`, the inhibition was active: 31.6%.
With `COc1ccc(N(C)S(=O)(=O)c2cccc(C(=O)NCC(c3cccs3)N(C)C)c2)cc1` (stereo not drawn) the inhibition was active: 46.1%.
In the case of `COC(=O)c1[nH]c2cccc(OC)c2c1NC(=O)CCN1CCN(c2ccccc2OC)CC1`, the inhibition is reported as active: 83.3%.
With `CCCCCn1c(Sc2ccccc2)nc2c1c(=O)[nH]c(=O)n2C` the inhibition was active: 31.4%.
With `CC(C)c1nnc(NC(=O)CCC(=O)Nc2ccc3cn[nH]c3c2)s1` the inhibition was active: 60.6%.
For `Cc1c(C(=O)N2CCN(S(=O)(=O)c3ccccc3)CC2)oc2ccccc12`, the inhibition was active: 34.4%.
In the case of `CN1CCN(C2=Cc3ccc(Cl)cc3Sc3ccc(F)cc32)CC1`, the inhibition is reported as active: 103%.
In the case of `CCCCC(=O)N/N=C/c1ccc(N2CCOCC2)c([N+](=O)[O-])c1`, the inhibition is reported as active: 59.1%.
With `CN(CC(=O)Nc1cccc(F)c1)C(=O)c1cc([N+](=O)[O-])ccc1N1CCCCC1` the inhibition was active: 41.6%.
`Cc1cccc(C)c1NC(=O)CNC(=O)CN1C(=O)NC2(CCc3ccccc32)C1=O` (stereo not drawn) was tested, and the inhibition was active: 33.2%.
With `Cc1cccnc1NC(=O)CSc1nnc(Cc2ccccc2)o1` the inhibition was active: 44.4%.
In the case of `Cc1ccc(CC(=O)Nc2ccc(F)c([N+](=O)[O-])c2)cc1C`, the inhibition is reported as active: 42.2%.
With `Cc1cc(C)c(NC(=O)CCCn2c(=O)oc3ccccc32)c(C)c1` the inhibition was active: 33.1%.
`CCOC(=O)N1CCN(Cc2ccc(OCC(O)CN3CCCCC3)cc2)CC1` (stereo not drawn) was tested, and the inhibition was active: 50.9%.
In the case of `CN1CCc2c(n(CC(O)CNCc3ccccc3)c3ccccc23)C1=O` (stereo not drawn), the inhibition is reported as active: 66.3%.
